# According to the supplement of paper PMC8728848:
# Some of the results follow.
# Assays:
# Assay in all cases: glycan array binding signal (z-score within array); higher = stronger binding
# Conditions in all cases: glycan notation: IUPAC condensed, linker removed
# [1] = target: Fuc(a1-2)[GalNAc(a1-3)]Gal(b1-3)GlcNAc(b1-6)GalNAc
# Summary of the method: (§1)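 Arrays were curated from the Consortium for Functional Glycomics database, 3228 in total, and kept only where the protein sequence was available. Binding is expressed as a within-array Z-score. This score was averaged across arrays of the same protein sequence at different concentrations or buffers and across linkers, and negative values can be read as non-binding.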
# [2] = target: Fuc(a1-2)[GalNAc(a1-3)]Gal(b1-4)Glc
# Summary of the method: as §1
# [3] = target: Fuc(a1-2)[GalNAc(a1-3)]Gal(b1-4)GlcNAc
# Summary of the method: as §1
# [4] = target: Fuc(a1-2)[GalNAc(a1-3)]Gal(b1-4)GlcNAc(b1-2)Man
# Summary of the method: as §1
# [5] = target: Fuc(a1-2)[GalNAc(a1-3)]Gal(b1-4)GlcNAc(b1-2)Man(a1-3)[Fuc(a1-2)[GalNAc(a1-3)]Gal(b1-4)GlcNAc(b1-2)Man(a1-6)]Man(b1-4)GlcNAc(b1-4)GlcNAc
# Summary of the method: as §1
# [6] = target: Fuc(a1-2)[GalNAc(a1-3)]Gal(b1-4)GlcNAc(b1-2)Man(a1-3)[Fuc(a1-2)[GalNAc(a1-3)]Gal(b1-4)GlcNAc(b1-2)Man(a1-6)]Man(b1-4)GlcNAc(b1-4)[Fuc(a1-6)]GlcNAc
# Summary of the method: as §1
# [7] = target: Fuc(a1-2)[GalNAc(a1-3)]Gal(b1-4)GlcNAc(b1-3)Gal(b1-4)GlcNAc
# Summary of the method: as §1
# [8] = target: Fuc(a1-2)[GalNAc(a1-3)]Gal(b1-4)GlcNAc(b1-3)Gal(b1-4)GlcNAc(b1-3)Gal(b1-4)GlcNAc
# Summary of the method: as §1
# [9] = target: Fuc(a1-2)[GalNAc(a1-3)]Gal(b1-4)GlcNAc(b1-3)GalNAc
# Summary of the method: as §1
# [10] = target: Fuc(a1-2)[GalNAc(a1-3)]Gal(b1-4)GlcNAc(b1-3)[Fuc(a1-2)[GalNAc(a1-3)]Gal(b1-4)GlcNAc(b1-6)]GalNAc
# Summary of the method: as §1
# [11] = target: Fuc(a1-2)[GalNAc(a1-3)]Gal(b1-4)GlcNAc(b1-6)GalNAc
# Summary of the method: as §1
# [12] = target: Fuc(a1-2)[GalNAc(a1-3)]Gal(b1-4)[Fuc(a1-3)]GlcNAc
# Summary of the method: as §1
# [13] = target: Fuc(a1-2)[GalNAc(a1-3)]Gal(b1-4)[Fuc(a1-3)]GlcNAc(b1-3)GalNAc
# Summary of the method: as §1
# [14] = target: Fuc(a1-2)[GalNAc(a1-4)]Gal(b1-4)GlcNAc
# Summary of the method: as §1
# [15] = target: Fuc(a1-2)[GalNAc(b1-3)]Gal
# Summary of the method: as §1
# Fuc(a1-3)GlcNAc = target: Fuc(a1-3)GlcNAc
# Summary of the method: as §1
# [16] = target: Fuc(a1-3)[Gal(b1-4)]Glc6S
# Summary of the method: as §1
# [17] = target: Fuc(a1-3)[Gal(b1-4)]GlcNAc
# Summary of the method: as §1
# [18] = target: Fuc(a1-3)[Gal(b1-4)]GlcNAc(b1-2)Man
# Summary of the method: as §1
# [19] = target: Fuc(a1-3)[Gal(b1-4)]GlcNAc(b1-2)Man(a1-3)[Fuc(a1-3)[Gal(b1-4)]GlcNAc(b1-2)Man(a1-6)]Man(b1-4)GlcNAc(b1-4)GlcNAc
# Summary of the method: as §1
# [20] = target: Fuc(a1-3)[Gal(b1-4)]GlcNAc(b1-2)Man(a1-3)[Fuc(a1-3)[Gal(b1-4)]GlcNAc(b1-2)Man(a1-6)]Man(b1-4)GlcNAc(b1-4)[Fuc(a1-6)]GlcNAc
# Summary of the method: as §1
# [21] = target: Fuc(a1-3)[Gal(b1-4)]GlcNAc(b1-3)Gal(b1-3)[Fuc(a1-4)]GlcNAc
# Summary of the method: as §1
# [22] = target: Fuc(a1-3)[Gal(b1-4)]GlcNAc(b1-3)Gal(b1-4)[Fuc(a1-3)]GlcNAc
# Summary of the method: as §1
# [23] = target: Fuc(a1-3)[Gal(b1-4)]GlcNAc(b1-3)Gal(b1-4)[Fuc(a1-3)]GlcNAc(b1-3)Gal(b1-4)[Fuc(a1-3)]GlcNAc
# Summary of the method: as §1
# [24] = target: Fuc(a1-3)[Gal(b1-4)]GlcNAc(b1-3)GalNAc
# Summary of the method: as §1
# [25] = target: Fuc(a1-3)[Gal(b1-4)]GlcNAc(b1-6)GalNAc
# Summary of the method: as §1
# [26] = target: Fuc(a1-3)[Gal(b1-4)]GlcNAc(b1-6)[Gal(b1-3)GlcNAc(b1-3)]Gal(b1-4)Glc
# Summary of the method: as §1
# [27] = target: Fuc(a1-3)[Gal(b1-4)]GlcNAc6S
# Summary of the method: as §1
# [28] = target: Fuc(a1-3)[Gal3S(b1-4)]Glc
# Summary of the method: as §1
# [29] = target: Fuc(a1-3)[Gal3S(b1-4)]GlcNAc
# Summary of the method: as §1
# [30] = target: Fuc(a1-3)[Gal3S(b1-4)]GlcNAc6S
# Summary of the method: as §1
# [31] = target: Fuc(a1-3)[GalNAc(b1-4)]GlcNAc
# Summary of the method: as §1
# [32] = target: Fuc(a1-3)[GalNAc(b1-4)]GlcNAc6S
# Summary of the method: as §1
# Fuc(a1-4)GlcNAc = target: Fuc(a1-4)GlcNAc
# Summary of the method: as §1
# Fuc(b1-3)GlcNAc = target: Fuc(b1-3)GlcNAc
# Summary of the method: as §1
# Gal(a1-2)Gal = target: Gal(a1-2)Gal
# Summary of the method: as §1
# Gal(a1-3)Gal = target: Gal(a1-3)Gal
# Summary of the method: as §1
# Gal(a1-3)Gal(b1-3)GlcNAc = target: Gal(a1-3)Gal(b1-3)GlcNAc
# Summary of the method: as §1
# [33] = target: Gal(a1-3)Gal(b1-3)GlcNAc(b1-2)Man
# Summary of the method: as §1
# [34] = target: Gal(a1-3)Gal(b1-3)GlcNAc(b1-2)Man(a1-3)[Gal(a1-3)Gal(b1-3)GlcNAc(b1-2)Man(a1-6)]Man(b1-4)GlcNAc(b1-4)GlcNAc
# Summary of the method: as §1
# [35] = target: Gal(a1-3)Gal(b1-3)GlcNAc(b1-3)GalNAc
# Summary of the method: as §1
# [36] = target: Gal(a1-3)Gal(b1-3)GlcNAc(b1-6)GalNAc
# Summary of the method: as §1
# [37] = target: Gal(a1-3)Gal(b1-3)[Fuc(a1-4)]GlcNAc(b1-2)Man(a1-3)[Gal(a1-3)Gal(b1-3)[Fuc(a1-4)]GlcNAc(b1-2)Man(a1-6)]Man(b1-4)GlcNAc(b1-4)GlcNAc
# Summary of the method: as §1
# Gal(a1-3)Gal(b1-4)Glc = target: Gal(a1-3)Gal(b1-4)Glc
# Summary of the method: as §1
# Gal(a1-3)Gal(b1-4)GlcNAc = target: Gal(a1-3)Gal(b1-4)GlcNAc
# Summary of the method: as §1
binder,measurement,setting,value
GS7807H-bfa-490-18-490 (Bacteroides fragilis) (protein) GNLEEMNIDPDNATQTHPKLLLTQICMNAFKRGTDGMYATKKVIQADGESADQYYKWTRGSFGYYDNLRNVQKMGEEAERVNAPVYTALTKFFRAYYFYELTLRFGDIPYSQALKGEKEEIYTPEYDAQEDVFAGILQELREADEILANDASVIDGDIIYNGNSTQWRKLINSFRLKVLMTLSNHTTVGNINIASEFKNIATNSPLMNSLADNGQLVYLDQQGNRYPQFNAQWSGYYMDDTFIQRMRERRDPRLFIFSAQTNKGKTEGKPIDDFSSYEGGDPAAPYSDAIIKVSEGTISPINDRFRTDPIVEPTMLMGYAELQQILAEAVVRGWISGNAQTYYEKGIRASFSFYETHAKDYAGYLNENAVAQYLKEPLVDFTQASGTEEQIERIIMQKYLVTFYQGNWDSFYEQLRTGYPDFRRPAGTEIPKRWMYPQGEYDNNGTNVETAITRQFGAGNDKINQATWWQKKS,glycan array binding signal (z-score),[1],-0.435
same,glycan array binding signal (z-score),[2],-0.704
same,glycan array binding signal (z-score),[3],-0.543
same,glycan array binding signal (z-score),[4],-0.197
same,glycan array binding signal (z-score),[5],-0.125
same,glycan array binding signal (z-score),[6],0.217
same,glycan array binding signal (z-score),[7],-0.224
same,glycan array binding signal (z-score),[8],0.699
same,glycan array binding signal (z-score),[9],-0.444
same,glycan array binding signal (z-score),[10],-0.146
same,glycan array binding signal (z-score),[11],-0.479
same,glycan array binding signal (z-score),[12],0.449
same,glycan array binding signal (z-score),[13],0.984
same,glycan array binding signal (z-score),[14],0.324
same,glycan array binding signal (z-score),[15],1.14
same,glycan array binding signal (z-score),Fuc(a1-3)GlcNAc,0.007
same,glycan array binding signal (z-score),[16],1.17
same,glycan array binding signal (z-score),[17],-0.003
same,glycan array binding signal (z-score),[18],-0.436
same,glycan array binding signal (z-score),[19],-0.314
same,glycan array binding signal (z-score),[20],1.38
same,glycan array binding signal (z-score),[21],-0.645
same,glycan array binding signal (z-score),[22],0.068
same,glycan array binding signal (z-score),[23],0.166
same,glycan array binding signal (z-score),[24],-0.221
same,glycan array binding signal (z-score),[25],0.004
same,glycan array binding signal (z-score),[26],0.603
same,glycan array binding signal (z-score),[27],-0.707
same,glycan array binding signal (z-score),[28],0.171
same,glycan array binding signal (z-score),[29],1.21
same,glycan array binding signal (z-score),[30],-0.037
same,glycan array binding signal (z-score),[31],0.141
same,glycan array binding signal (z-score),[32],-0.224
same,glycan array binding signal (z-score),Fuc(a1-4)GlcNAc,-0.114
same,glycan array binding signal (z-score),Fuc(b1-3)GlcNAc,-0.102
same,glycan array binding signal (z-score),Gal(a1-2)Gal,-0.754
same,glycan array binding signal (z-score),Gal(a1-3)Gal,-0.011
same,glycan array binding signal (z-score),Gal(a1-3)Gal(b1-3)GlcNAc,0.074
same,glycan array binding signal (z-score),[33],-0.175
same,glycan array binding signal (z-score),[34],1.66
same,glycan array binding signal (z-score),[35],-0.576
same,glycan array binding signal (z-score),[36],0.244
same,glycan array binding signal (z-score),[37],0.346
same,glycan array binding signal (z-score),Gal(a1-3)Gal(b1-4)Glc,-0.168
same,glycan array binding signal (z-score),Gal(a1-3)Gal(b1-4)GlcNAc,-0.116
